Measured values reported in PubChem BioAssay AID1346428 (National Center for Advancing Translational Sciences (NCATS), 2018).
Among all 48,000 compounds or so, about 1,200 (2.5%) were called active. About 2% were inconclusive and are not listed.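 The calls were made as follows: active = activation of at least 60% and not above a set upper limit (about 1 call in 100 departs from these limits); inconclusive = activation of 40% to 60%, or above that upper limit; inactive = activation under 40%.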 The list shows a part of the results.

The molecules below were run against Probable G-protein coupled receptor 32 (Homo sapiens) (UniProt O75388) (assay: qHTS for Agonists of Human Resolvin D1 Receptor DRV1). Conditions: CHO-K1 GPR32 beta-arrestin PathHunter luminescence, 90 min; at 76.9 µM; stronger effect = higher value; zero percent set by DMSO-only wells.
Chain of UniProt O75388 (O75388 whole entry, looked up, the tested form may be a part): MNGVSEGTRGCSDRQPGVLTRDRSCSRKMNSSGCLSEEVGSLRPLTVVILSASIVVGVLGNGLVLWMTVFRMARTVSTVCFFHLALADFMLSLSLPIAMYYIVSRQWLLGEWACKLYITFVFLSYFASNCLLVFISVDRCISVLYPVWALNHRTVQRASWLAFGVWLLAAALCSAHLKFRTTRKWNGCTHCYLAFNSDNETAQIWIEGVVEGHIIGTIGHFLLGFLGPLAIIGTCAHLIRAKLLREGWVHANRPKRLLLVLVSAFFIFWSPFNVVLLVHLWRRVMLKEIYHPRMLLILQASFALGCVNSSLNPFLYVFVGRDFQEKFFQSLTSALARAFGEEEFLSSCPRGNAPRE
In short: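 PathHunter enzyme-fragment complementation, CHO-K1 GPR32 stable line; 2,500 cells/well, overnight attach; cpd 90 min 37 °C 5% CO2; detection reagent 1 h RT; chemiluminescence. DMSO = EC0.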

SMILES	activation
O=C(Nc1cccc(-c2nc3cccnc3s2)c1)c1cccc(Br)c1	inactive: -8.11%
CCNC(=O)CC1C(=O)N(c2ccc(C)cc2)C(=O)N1CCC(C)C (stereo not given)	inactive: -3.46%
O=C(Cn1c(=O)oc2cc(S(=O)(=O)N3CCCC3)ccc21)Nc1ccc(F)cc1F	inactive: -14.3%
COc1ccc2c(Sc3ccc(Cl)cc3)c(C(=O)N3CCC(C)CC3)[nH]c2c1	inactive: -19.2%
N#Cc1ccccc1NC(=O)C(=O)NCCc1csc(-c2ccc(F)cc2)n1	inactive: 28.4%
Cc1ccc(S(=O)(=O)c2nc(-c3cccs3)oc2SC(C)C)cc1	inactive: -26.6%
CCc1cccc(NC(=O)CSc2ncc3c(n2)-c2ccccc2N(CC)S3(=O)=O)c1	inactive: 42.5%
COc1ccc(NC(=O)C(C)n2nc(-c3cc(C)ccc3C)c3c(c2=O)CCCC3)cc1 (stereo not given)	inactive: 7.73%
COCCNC(=O)CSc1nc2cc3c(cc2c(=O)n1Cc1ccc(C(=O)NCCc2ccc(OC)c(OC)c2)cc1)OCO3	inactive: -7.78%
CCOc1ccc(NC(=O)CSc2nnc(-c3ccncc3)n2-c2ccccc2)cc1	inactive: 38.3%
COCCCNC(=O)CCC(=O)NNc1nc2ccccc2c2nc(-c3ccccc3)nn12	inactive: 5.68%
O=C(NCCc1ccccc1)C(=O)NCC(c1ccco1)S(=O)(=O)c1ccccc1 (stereo not given)	inactive: -6.32%
Nc1c[n+](N2CCOCC2)no1	inactive: -5.77%
COc1ccc(CNC(=O)c2ccc(CSc3nc4ccncc4n3Cc3ccccc3F)cc2)cc1	inactive: -0.926%
CCOc1ccc(Nc2ncnc3c2cnn3-c2ccc(F)cc2)cc1	inactive: 7.05%
CCOC(=O)C(=O)Nc1nnc2n1CCS2	inactive: -6.49%
Cc1nc(N2CCCC2)ncc1C(=O)N1CCN(c2ccc(Cl)cc2)CC1	inactive: 3.83%
Cc1ccc(C)c(-n2cc(-c3ccccc3)nc2SCC(=O)Nc2ccccc2)c1	inactive: -20.5%
Cc1nc2c(C(=O)NCc3ccccc3Cl)cnn2c(C)c1Cc1ccccc1	inactive: -0.256%
COc1ccc(NC(=O)Cn2c(=O)n(Cc3ccccc3)c(=O)c3oc4ccccc4c32)cc1Cl	inactive: -11.1%
COc1cccc(-c2csc(-c3c(N)c(C(=O)c4ccccc4)n4ccccc34)n2)c1	inactive: 15.8%
O=C(CSc1nc2c([nH]c3ccccc32)c(=O)n1-c1ccc(Cl)cc1)N1CCCCCC1	inactive: 34.2%
Cc1nc2n(c(=O)c1CCN1CCC(c3noc4cc(F)ccc34)CC1)CCC[C@H]2O	inactive: 8.41%
Cn1cc(S(=O)(=O)N2CCCCC2)cc1C(=O)N1CCN(c2ccccc2F)CC1	inactive: 6.18%
CCCCOc1cc(C(=O)OCCN(CC)CC)ccc1N	inactive: 0.423%
CCOC(=O)c1ccccc1NC(=O)Cn1c(=O)n(CCCC(=O)NCc2ccc3c(c2)OCO3)c(=O)c2ccccc21	inactive: -8.21%
COCCCNC(=O)c1cnn(-c2ccc(F)cc2F)c1C1CCNCC1	inactive: 1.71%
COc1ccc(NC(=O)CC2C(=O)N(c3ccc(F)cc3)C(=O)N2CCc2sccc2C)cc1 (stereo not given)	inactive: -0.922%

SMILES	activation
CCOC(=O)c1cc(-c2ccccc2)n(CCC(=O)Nc2cc(C)cc(C)c2)c1C	inactive: -20.9%
Cc1ccc2scc(N3CCCCC3)c(=O)c2c1	inactive: -19.4%
Nc1ccc2nc(-c3ccc(O)cc3)sc2c1	inactive: 14.8%
O=C(Cn1c(=O)oc2cc(S(=O)(=O)NCc3ccccc3)ccc21)NCc1ccccc1Cl	inactive: 16.9%
Cc1ccc(N2CCN(C(=O)C3CCN(c4ncnc5c4nc4n5CCCCC4)CC3)CC2)c(C)c1	inactive: -3.4%
Cc1ccc2nc(NC(=O)c3nc(SCc4ccccc4C)ncc3Cl)sc2c1	inactive: 19.4%
COc1cc([C@H]2Oc3cc([C@H]4Oc5cc(O)cc(O)c5C(=O)[C@@H]4O)ccc3O[C@@H]2CO)ccc1O	inactive: -6.72%
CN(Cc1ccccc1)C(=O)C1CCC(CNS(=O)(=O)c2ccc3c(c2)CCCC(=O)N3)CC1 (stereo not given)	inactive: 3.99%
N#C/C(=C1/SC[C@@H](c2ccc(Cl)cc2Cl)S1)n1ccnc1	inactive: -37.5%
NC(N)=N[C@@H](CCC(=O)O)C(=O)O	inactive: -1.42%
Cc1ccc2ncc(C(=O)NC(C)c3ccccc3)c(=O)n2c1 (stereo not given)	inactive: -7.14%
O=C(O)CCc1nnc2cnc3ccccc3n12	inactive: 3.03%
CCc1nn(CC(=O)NCCCc2ccccc2)c(=O)c2cc3c(OC)cccc3n12	inactive: -0.658%
CC(=O)N1CCC2(CC1)OC(=O)C(C)=C2C(=O)NCc1cccc(Cl)c1	inactive: -8.18%
COc1cc(NC(=O)NCC2CCN(Cc3ccc(C)cc3)CC2)cc(OC)c1OC	inactive: -10.7%
Cc1ccc(N2CCN(C(=O)c3c(C)oc4ncnc(N5CCOCC5)c34)CC2)c(C)c1	inactive: -11.6%
Cc1ccc(C)c(Nc2cc(C(=O)NCCCN(C)C3CCCCC3)c3ccccc3n2)c1	inactive: -8.54%
Cc1ccc(N2C(=O)CS(=O)(=O)C23C(=O)N(C)c2ccccc23)cc1F (stereo not given)	inactive: -9.02%
O=[N+]([O-])c1cc(-c2nc(-c3ccccn3)no2)ccc1NCc1ccccc1	inactive: 15.9%
C[N+](C)(C)CC(O)CC(=O)[O-] (stereo not given)	inactive: 11%
Cc1ccc(CNC(=O)c2cnc3c(-c4ccccc4)c(C)nn3c2C)o1	inactive: -15.3%
Cc1ccc(CN2CCCn3nc(C(=O)NCc4cc(C)ccc4C)cc3C2=O)cc1	inactive: -4.03%
Cc1ccc(C(=O)Nc2nnc(S(=O)(=O)N3CCN(c4ccc(F)cc4)CC3)s2)cc1	inactive: -0.758%
Cc1ccc(S(=O)(=O)CCC(=O)Nc2ccc(Br)cc2C)cc1	inactive: 5.17%
CCOC(=O)c1cnc2c(ccc3ccccc32)c1Nc1ccccc1OC	active: 85%
COc1ccc(-c2noc(CSc3nnc(Cc4ccccc4)n3-c3ccccc3)n2)cc1OC	inactive: -8.72%
CCOC(=O)c1cc(-c2ccccc2)n(CC(=O)NC2CCC(C)CC2)c1C (stereo not given)	inactive: -10.2%
